Results published in a collection of fitness landscapes (doi:10.1016/j.celrep.2020.107928).
In all, about 81,000 sequences were measured (“one-hybrid fitness for binding parS DNA”: median about -0.17, highest 2% from about 0.51 on). Some of the results follow.

B1: Caulobacter ParB omega fusion; a variant is named by its letters at X, in order, B8GW30 (parent)
chain: MESVVVGEPGMSEGRRGLGRGLSALLGEVDAAPAQAPGEQLGGSREAPIEILQRNPDQPRRTFREEDLEDLSNSIREKGVLQPILVRPSPDTAGEYQIVAGERAWRAAQRAGLKTVPIMVRELDDLAVLEIGIIENVQRADLNVLEEALSYKVLMEKFERTQENIAQTIGKSXSHVANXMRLLXLPDEVQSYLVSGELTAXHARAIAAAADPVALAKQIIEGGLSVRETEALARKAPNLSAGKSKGGRPPRVKDTDTQALESDLSSVLGLDVSIDHRGSTGTLTITYATLEQLDDLCNRLTRGI

Variants of: B1
Assay: one-hybrid fitness for binding parS DNA (scaled: cognate 1, non-cognate 0); higher = stronger binding
Settings: with parS DNA site
Summary of the method: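 Bacterial one-hybrid selection in E. coli USO rpoZ- hisB- pyrF- with a HIS3 reporter carrying the site 19 bp from the promoter, screening Caulobacter ParB libraries with four specificity codons randomised (NNS). Cells grew 48 hours at 37°C on M9-minus-histidine plus 0.1 mM IPTG and 5 mM 3-AT. Plasmids before and after selection were Illumina-sequenced, three replicate libraries pooled, and variants under 10 reads dropped. Fitness is the log change in variant-to-wild-type read ratio, rescaled to cognate 1, non-cognate 0.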

one-hybrid fitness for binding parS DNA, 0.206:
HRTT

one-hybrid fitness for binding parS DNA, 0.435:
RMMN

one-hybrid fitness for binding parS DNA, 0.913:
RCCT

one-hybrid fitness for binding parS DNA, ≤ 0.2:
LEQP
PAGV
YYPK
RFFR
FITR
HRHV
CLSL
GILF
FMMS
LTHY
MVTR
QWMW
CLYR
PRLI
PYVR
YTCA
WKNT
PPVS
APTM
GSDA
KHFR
TCPR
QPYS
FADW
AIQF
NFYR
YSKV
ETEM
YTCL
CRMG
DGND
SLFT
CNMR
LDTQ
AGQR
KSEW
LVPL
NMWT
TVSP
TDGC
QQEE
TLNG
EVRW
SECG
TWFS
AQDF
CYQS
DGTV
AQER
ISHF
QRPC
TKIR
AGLE
PQQG
PCQP
GSMS
TDKI
ARYA
ASYY
MIDT
MHIG
GRVT
TTWC
QITP
GSNG
AHER
SRYS
CTTH
FVHR
MATG
IVAG
QCND
NEKT
LTDK
VIQR
DDPK
CGST
PGEH
QGKH
ISSE
SITT
LTSE
HVGY
CHCS
CRMW
SAAQ
RSKI
SLEW
PLNV
AIIG
SGMY
FHTR
TYYQ
PLLT
MIPS
QNPM
VKNA
STHA
SMYG
YRSC
IPYR
VRVK
LRHL
EMTG
NRQS
SWKM
HTHR
QHMS
AQEF
PWRT
PVGI
ARLW
LLRN
FPTQ
PEPF
WLSC
EKAG
FNHD
LMPV
SSHI
GIIG
AFEC
YTAI
AGHG
DLFV
RGIK
SIPI
CAAG
VNSG
LQAM
SKHW
NEYR
VKHS
ANAA
TELK
DSGC
EITL
RLAL
DNQP
WQVR
PYTF

one-hybrid fitness for binding parS DNA, 0.973:
RASC

one-hybrid fitness for binding parS DNA, 0.495:
RNSA

one-hybrid fitness for binding parS DNA, 0.201:
RLWP

one-hybrid fitness for binding parS DNA, 0.308:
RGET

one-hybrid fitness for binding parS DNA, 0.514:
RYKY

one-hybrid fitness for binding parS DNA, 0.844:
RLVT

one-hybrid fitness for binding parS DNA, 0.886:
RKDS

one-hybrid fitness for binding parS DNA, 0.392:
IIYW

one-hybrid fitness for binding parS DNA, 0.746:
RKTA
